Experimental data: paper PMC7457539
Results are given in words; binding and its absence hold for the method and conditions named. Binding seen in cells or lysates may run through a third protein. Some entries that bind do so weakly or less than the wild type.

Sequences of proteins named here, by UniProt entry; tags and fusion partners are left off.
UniProt O95863: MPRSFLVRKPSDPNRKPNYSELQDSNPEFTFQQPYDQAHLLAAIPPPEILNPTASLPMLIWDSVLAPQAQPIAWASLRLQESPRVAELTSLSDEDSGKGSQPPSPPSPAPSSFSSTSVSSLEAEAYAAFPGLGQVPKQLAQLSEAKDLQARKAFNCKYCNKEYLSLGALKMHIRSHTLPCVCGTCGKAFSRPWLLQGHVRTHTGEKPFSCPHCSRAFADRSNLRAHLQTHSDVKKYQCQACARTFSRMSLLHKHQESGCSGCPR
UniProt O15372: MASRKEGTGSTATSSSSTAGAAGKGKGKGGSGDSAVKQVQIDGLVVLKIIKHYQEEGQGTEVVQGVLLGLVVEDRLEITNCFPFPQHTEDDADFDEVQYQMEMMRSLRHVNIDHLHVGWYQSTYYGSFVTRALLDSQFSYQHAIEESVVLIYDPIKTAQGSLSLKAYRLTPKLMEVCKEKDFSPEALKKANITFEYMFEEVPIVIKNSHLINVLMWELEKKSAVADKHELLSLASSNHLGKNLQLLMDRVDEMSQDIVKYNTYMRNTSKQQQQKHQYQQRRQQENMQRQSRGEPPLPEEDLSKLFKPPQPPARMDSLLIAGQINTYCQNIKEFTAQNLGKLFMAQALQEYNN
UniProt Q13347: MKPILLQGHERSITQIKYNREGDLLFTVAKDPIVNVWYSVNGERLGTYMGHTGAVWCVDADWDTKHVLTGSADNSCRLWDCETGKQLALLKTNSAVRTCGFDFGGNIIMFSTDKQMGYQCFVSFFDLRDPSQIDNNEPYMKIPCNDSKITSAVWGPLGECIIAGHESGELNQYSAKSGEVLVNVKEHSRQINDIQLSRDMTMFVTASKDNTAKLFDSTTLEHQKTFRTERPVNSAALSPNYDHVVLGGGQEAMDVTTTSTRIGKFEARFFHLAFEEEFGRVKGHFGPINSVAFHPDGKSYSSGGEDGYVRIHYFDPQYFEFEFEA

Tests used:
[1] = biological target: endogenous Snail (human (endogenous in KYSE510 and HEK293T)) (UniProt O95863); assay: co-IP; endogenous proteins of HEK293T cells with EIF3H knock-down (Fig. S2A), anti-Snail antibody, immunoblotting
[2] = biological target: endogenous Snail (human (endogenous in KYSE510 and HEK293T)) (UniProt O95863); assay: co-IP; endogenous proteins of KYSE510 cells (also with EIF3H knock-down, Fig. S2B), anti-Snail antibody at 4 C for 12 h, protein A/G agarose beads, immunoblotting
[3] = biological target: Snail-Flag (full length, wild type) (UniProt O95863); assay: co-IP; co-expression in HEK293T, 10 uM MG132 for 4 h, whole cell lysates with anti-Flag M2 affinity gel at 4 C for 12 h, washed five times with RIPA buffer, immunoblotting
EIF3H-Flag (human) = EIF3H-Flag (human) (UniProt O15372); assay: as above

Substance	binding [1]	binding [2]	binding [3]	binding (EIF3H-Flag (human))
endogenous EIF3H (from UniProt O15372 1-352)	binds	binds		
EIF3H (untagged, transfected) (from UniProt O15372 1-352)			binds	
Snail (untagged, transfected) (from UniProt O95863 1-264)				binds
EIF3I (endogenous) (from UniProt Q13347 1-325)	no binding	no binding		
